From paper PMC12136788
The list shows a part of the results.

T1: UNK ZnF1-6 (called full-length) (human, UniProt Q9C0B0 30-357)
T1 sequence: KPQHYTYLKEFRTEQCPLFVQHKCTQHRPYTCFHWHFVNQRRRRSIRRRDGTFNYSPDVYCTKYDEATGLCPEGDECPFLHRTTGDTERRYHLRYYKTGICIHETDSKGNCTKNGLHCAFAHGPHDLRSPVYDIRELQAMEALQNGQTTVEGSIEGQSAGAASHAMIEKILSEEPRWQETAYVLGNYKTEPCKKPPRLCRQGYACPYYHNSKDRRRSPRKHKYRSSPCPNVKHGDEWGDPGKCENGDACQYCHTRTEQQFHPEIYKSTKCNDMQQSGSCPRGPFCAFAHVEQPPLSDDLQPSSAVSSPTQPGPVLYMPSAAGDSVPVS

B1: chr17:80295660:80295761:+|CDS|ENSG00000173821|msi1|FALSE|bound_elsewhere (ssRNA)
RNA: GGGAGUUCUACAGUCCGACGAUCGAGUAAACUGAAAACAGGCCUGAUUGUCCUUUUUGUAGUGGAAAAAAUUGAGCUUUUAUUAGAAGGCAGCCUGGACUGGUUGUGUCACCUCCUAACCUCAGAUGCCAGCUCACCAGAUGACAACAGAGGAUUGAGCAUCA
B2: ENSG00000150457:stop:overlap|stop_codon|ENSG00000150457|stop_codon|NA|stop_codon (ssRNA)
RNA: GGGAGUUCUACAGUCCGACGAUCCAGAUUUAGAAAGCUCUGAUCUGGUGGAUCAGACUGAAGGCUGCCAGCCUGUGUACGUGUAGAUGGGGGCCAGGCACCCCCACCACUCGCUGCCUCCCAGGUCAGGGUCCCGGAGCCGGUCAACAGAGGAUUGAGCAUCA
B3: chr12:29502561:29502662:-|3pUTR|ENSG00000133687|msi1|total|mutant (ssRNA)
RNA: GGGAGUUCUACAGUCCGACGAUCUCUUAACAAUGAUGUAUGGCACAAUUGGUUGGUUGAGGCUAUCAUUCCAUGAUUACAAACCGGUGGUUAUGUGGGGUGGUUUUGCACUUGUGGCAAUUGGACUGCAAUUUGGCCUUAAAACAACAGAGGAUUGAGCAUCA
B4: chr17:3714672:3714773:-|3pUTR|ENSG00000083457|msi1_unk|total|mutant (ssRNA)
RNA: GGGAGUUCUACAGUCCGACGAUCUUUGCAUUACUUUUUCCUUCAGGAUGAUCCCGAGCAGCAUGGAGCUGUUGGCCGAAUAUCCGUUUUUAACCAUACAUUGUCCCAAAAGUGUCUGUGCAUUGUGCAAAAAGUAAACUCCGGCAACAGAGGAUUGAGCAUCA
B5: chr8:38142699:38144272:-|three_prime_utr|ENSG00000147465|control|control|control (ssRNA)
RNA: GGGAGUUCUACAGUCCGACGAUCGGAAGCCUGCAAGUCUAAGAUCUCCAUCUGGUGACAGUGGGAUGGGUGGGGUUCGUGUUUAGAGUAUGACACUAGGAUUCAGAUUGGUGAAAGUUUUUAGUACCAAGAAAACAGGGAUGACAACAGAGGAUUGAGCAUCA
B6: chr12:62383855:62383964:+|CDS|ENSG00000135655|unk|total|mutant (ssRNA)
RNA: GGGAGUUCUACAGUCCGACGAUCGGCCGGACGUUUUGCACCUCAGUUCUCUGGAUAUCAGCAGCAAGACUGUCAAGAACUGUCCGCUUUCCUAUCCGAUGGAUUACAUGAGGAUUUGAACCGAAUCCGGAAAAAACCAUAUAUCAACAGAGGAUUGAGCAUCA
B7: chr11:112063736:112063838:+|3pUTR|ENSG00000150768|unk|total|mutant (ssRNA)
RNA: GGGAGUUCUACAGUCCGACGAUCGAGAGAAAAAAUUAACCCGGUUGCUACUUUAUUUGCCUAAAUACUUUUUUCUAUUUUGUCCGAUUUUGCCUUUCUUUUGGAAGGAAGGAGGCGAUAUUCUGGAUUAUAAAAAUGAAUUGGCAACAGAGGAUUGAGCAUCA
B8: ENSG00000070961:be:win_5801|3pUTR|ENSG00000070961|bound_else_gene|NA|bound_elsewhere_windowed (ssRNA)
RNA: GGGAGUUCUACAGUCCGACGAUCGAAAAGGGAAAUGUUUUCAGUUUUCUUUUUUAUUUUGGUUAUGCUUAAAUAUGAAUGUAAUUACCAAAAGAUUUAGAAGUGCAUGUGCUUUGGAGGAUUUGUAUUGAGCUUUUACAGUAUCAACAGAGGAUUGAGCAUCA
B9: chr15:74179522:74179623:-|3pUTR|ENSG00000137868|msi1|total|mutant (ssRNA)
RNA: GGGAGUUCUACAGUCCGACGAUCUCAUGACUCAGACCAGGUCCCACACUGAGCUGCCCACACUCGAGAGCCAGAUAUUUUUGCCGUUUUUAUGCCUUUGGCUAUUAUGAAAGAGGUCCGUGUGUUCCCUGCAAUAAACUUGUUCAACAGAGGAUUGAGCAUCA
B10: chr12:76025442:76025543:-|3pUTR|ENSG00000139289|msi1|total|mutant (ssRNA)
RNA: GGGAGUUCUACAGUCCGACGAUCAUACACCAUCACAUUCAUGAAUUUUUCCGCAUGGUCAGAACUUGUGUAAAUAUGUCUCUCCGAUGAUUUUGGGGAGAUGUGAUUUAUUUUUCAUAUUUUCAAAAUGCAUUUCAUUUCAAACAACAGAGGAUUGAGCAUCA
B11: ENSG00000198589:be:win_101|CDS|ENSG00000198589|bound_else_gene|NA|bound_elsewhere_windowed (ssRNA)
RNA: GGGAGUUCUACAGUCCGACGAUCCUCUGAAACCAGGGCUCCCCAUCAGGGGCAUCAGAAUGAAAUUUGCCGUGUUGACCGGUUUGGUUGAAGUUGGAGAAGUAUCCAAUAGGGAUAUUGUAGAAACUGUCUUUAACCUGUUGGCAACAGAGGAUUGAGCAUCA
B12: chr17:29498396:29498497:+|CDS|ENSG00000160551|msi1|FALSE|bound_elsewhere (ssRNA)
RNA: GGGAGUUCUACAGUCCGACGAUCCAGCAGCCAAAGCAGUAGUGUUAACAGUCUUCCAGAUGUCUCAGAUGACAAGAGUGAGCUAGACAUGAUGGAGGGAGACCACACAGUGAUGUCUAACAGUUCUGUUAUCCAUUUAAAACCCAACAGAGGAUUGAGCAUCA
B13: chr17:49055506:49055607:+|3pUTR|ENSG00000159217|unk|total|mutant (ssRNA)
RNA: GGGAGUUCUACAGUCCGACGAUCCACUUCCCGGCUGUGGGGGCUGGGGAGCCACUUGUAACAUUUCUGUGCAGAUUUUAUGUCCGCCACUGCUAUGUAAAAGCACGUUCAAAAUGAAUUUCAGCAGAUUAUGUGUUACCAUAACAACAGAGGAUUGAGCAUCA
B14: ENSG00000136451:be:win_3901|3pUTR|ENSG00000136451|bound_else_gene|NA|bound_elsewhere_windowed (ssRNA)
RNA: GGGAGUUCUACAGUCCGACGAUCAUAAACAGGAGUGAGACUUCAUUGUAUGACUUCAGUUAAAAUACUAUUUUGUAUGCAUUCUUUAUUCACUUAAGAAGCUUGUCUGCAAUAAUAAAGCCACGUCAUGUCUUCUUUUGGGAGCAACAGAGGAUUGAGCAUCA

molecular target: T1, UNK ZnF1-6 (called full-length); experiment: nsRBNS (natural sequence RNA bind-n-seq); RBNS binding buffer (assumed for nsRBNS): 25 mM Tris pH 7.5, 150 mM KCl, 3 mM MgCl2, 0.01% Triton X-100, 500 ug/ml BSA, 20 U/ml SUPERase-In, 4 C; UNK is unkempt and MSI1 is Musashi-1; names of the RNAs are library labels; protein concentration not given here; high values mean tight binding

Binder	binding signal [enrichment R]
B1	0.639
B2	0.715
B3	0.494
B4	0.373
B5	1.51
B6	0.544
B7	0.572
B8	0.67
B9	0.699
B10	0.502
B11	0.698
B12	0.632
B13	0.518
B14	0.419
